Whole data set: some 33,000 sequences, median “E-score (-0.5 to 0.5)” near -0.021, cut for the highest 2% near 0.32. This is one part of the list.
These sequences were tested against T1, Zap1 (UniProt P47043) (assay: PBM E-score (8-mer binding enrichment) (E-score (-0.5 to 0.5)); higher = stronger / more preferred TF binding; most listed sequences are background and not binding sites). Conditions: protein concentration: 200 nM; construct: GST-full length.
T1 sequence: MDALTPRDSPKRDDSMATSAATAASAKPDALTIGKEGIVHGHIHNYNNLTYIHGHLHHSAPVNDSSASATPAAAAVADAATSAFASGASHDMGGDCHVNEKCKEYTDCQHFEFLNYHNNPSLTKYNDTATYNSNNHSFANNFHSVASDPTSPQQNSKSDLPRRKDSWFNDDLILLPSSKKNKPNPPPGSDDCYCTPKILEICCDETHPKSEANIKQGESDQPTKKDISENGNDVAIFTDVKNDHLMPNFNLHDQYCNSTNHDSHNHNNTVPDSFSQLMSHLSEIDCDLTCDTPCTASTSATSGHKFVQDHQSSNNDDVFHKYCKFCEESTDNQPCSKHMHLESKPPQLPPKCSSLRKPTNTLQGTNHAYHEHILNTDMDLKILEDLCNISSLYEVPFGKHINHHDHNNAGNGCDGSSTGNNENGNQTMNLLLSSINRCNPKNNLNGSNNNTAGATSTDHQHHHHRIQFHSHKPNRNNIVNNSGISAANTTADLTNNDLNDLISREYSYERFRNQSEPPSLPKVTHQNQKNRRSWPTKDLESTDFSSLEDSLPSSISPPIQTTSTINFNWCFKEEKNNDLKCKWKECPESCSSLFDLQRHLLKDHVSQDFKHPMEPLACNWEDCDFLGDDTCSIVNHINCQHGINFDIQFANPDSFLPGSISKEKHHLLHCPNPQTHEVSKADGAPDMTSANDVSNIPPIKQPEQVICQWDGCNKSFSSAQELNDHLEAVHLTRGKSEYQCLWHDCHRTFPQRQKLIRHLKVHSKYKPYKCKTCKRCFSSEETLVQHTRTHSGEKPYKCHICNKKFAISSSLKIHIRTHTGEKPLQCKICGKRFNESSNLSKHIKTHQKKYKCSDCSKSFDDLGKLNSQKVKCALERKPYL
Summary of the method: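 E-scores (a modified Wilcoxon-Mann-Whitney statistic) were assigned by the Universal PBM Analysis Suite to every ungapped eight-base word pooled with its reverse complement. The input came from universal all-10-mer Agilent arrays made double-stranded by primer extension and probed with GST-tagged yeast transcription factors at about 100-200 nM. Fluorescent anti-GST detected bound protein, and masliner normalised the scans.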

| Sequence | PBM E-score |
| --- | --- |
| CACCAGCC | -0.00221 |
| ACGGATAC | 0.234 |
| TATAGCGA | -0.00906 |
| CTTCGCAA | -0.00995 |
| GGGCCATA | 0.0915 |
| TCTCTTAA | -0.0368 |
| AAACATGA | 0.141 |
| ACCGGTAG | 0.131 |
| GATGGGTA | 0.128 |
| AAAGTGGC | -0.0301 |
| AATAATCG | 0.084 |
| GCTCATAA | 0.0749 |
| ATCAGGTC | -0.0975 |
| AGTGTCCC | 0.0964 |
| ATCTTCCA | -0.0755 |
| GCCTGTAA | 0.00746 |
| ATATCTAC | -0.036 |
| GCGACTAA | 0.0519 |
| CGGTTGTC | 0.279 |
| CCCAGGCC | -0.085 |
| AGCTCGAC | -0.118 |
| ATTACCTA | 0.216 |
| AGTTATAG | 0.148 |
| ACGTTTGA | 0.0134 |
| GCCAGAAC | -0.226 |

| Sequence | PBM E-score |
| --- | --- |
| CTTGGCAC | 0.0731 |
| ATATAGCC | 0.114 |
| CGGGTAGC | 0.237 |
| CTTGGCCA | -0.0871 |
| AGGAAGAA | -0.195 |
| AGCTTTAC | -0.171 |
| ACGGGGAC | -0.122 |
| GAAAGAAC | 0.193 |
| CGTTGACA | -0.0771 |
| GCCCAGCA | -0.0822 |
| CAGAGACG | -0.0148 |
| AGTGAGAG | -0.236 |
| AGATAACC | 0.435 |
| ACTACCAA | 0.125 |
| ACCGCGGA | 0.207 |
| CCCACAGA | 0.102 |
| GTGGTGGA | -0.063 |
| ATCAGATA | 0.0111 |
| CGGATAGA | -0.00993 |
| AGACTAGG | -0.0481 |
| AACCTCGT | 0.322 |
| ATCTTAGG | 0.0407 |
| GGTACCTA | 0.398 |
| CGATTAGA | -0.0297 |
| CTGTACTC | -0.233 |

| Sequence | PBM E-score |
| --- | --- |
| CGACTGAA | -0.106 |
| ACCCCCCA | -0.0827 |
| CGCTCCGA | 0.0725 |
| ACGCTTCC | -0.15 |
| ACAATGGA | 0.159 |
| GAAAGATA | 0.0248 |
| GGTGGCCA | 0.0278 |
| AATCCGAC | -0.12 |
| AGTGGGCG | -0.0679 |
| CGTACTAA | 0.0675 |
| CAAGCGTG | -0.0307 |
| TCTATACA | -0.0532 |
| GACTAAAC | -0.24 |
| GATCGAGA | -0.00057 |
| CAAAACCG | 0.199 |
| CGGAATGA | -0.00751 |
| ATGCAGCC | -0.0648 |
| AGACAGAG | -0.0767 |
| AAGCGAGG | -0.0248 |
| CGACACAC | -0.0284 |
| ATACGGTC | 0.0782 |
| ATTGGTTC | 0.141 |
| ATTGCGCA | -0.0952 |
| GGACTCGA | -0.174 |
| CGAAGCTC | -0.169 |

| Sequence | PBM E-score |
| --- | --- |
| TACCACGA | 0.0949 |
| GGCTTCTA | -0.17 |
| ACACCACC | -0.0272 |
| GCCATTCC | -0.231 |
| ATTCTGTG | -0.0176 |
| GACCGCTA | 0.141 |
| TAACATAA | 0.225 |
| GGTATAAA | 0.158 |
| CCTTCATC | -0.115 |
| GAATGCTA | -0.169 |
| CGGCAACC | 0.189 |
| AGGGAAAT | -0.165 |
| ACTACTTC | -0.186 |
| CAGTCTAC | -0.161 |
| CGCTATGC | -0.388 |
| GATATATA | 0.2 |
| TGCTCTAA | -0.139 |
| AGGCGCAG | -0.266 |
| CCCGCTCA | -0.0561 |
| ATGGCCGG | -0.105 |
| AGAAGGAG | -0.303 |
| GAGTGATA | 0.131 |
| AACGCCAA | -0.154 |
| GACTGGCA | -0.256 |
| AGCAATCG | -0.18 |

| Sequence | PBM E-score |
| --- | --- |
| CAATTGGG | -0.0104 |
| AGGATTGA | -0.0238 |
| CTGGGCGC | -0.24 |
| ACCCAATC | 0.175 |
| AGAACCAA | 0.148 |
| CATTGTTA | 0.0792 |
| CTAACCGA | -0.035 |
| CTCTCTGA | -0.281 |
| CCTTCGCG | 0.237 |
| CATTATGG | -0.104 |
| CGCATGGA | -0.195 |
| ATCTTGTC | -0.14 |
| CATTCCAG | -0.153 |
| GGAACCCA | 0.171 |
| AGTGTGGC | 0.0113 |
| ATGTGGCC | 0.0114 |
| ATCCGCAT | -0.0412 |
| CTAGAACC | 0.0618 |
| GGGCCGAA | -0.0565 |
| CGATCTCA | -0.108 |
| AAACTTGT | 0.215 |
| CCCCGAGG | 0.139 |
| CGGTTAGA | 0.234 |
| CATGAAGC | -0.168 |
| AACGCCCG | -0.136 |

| Sequence | PBM E-score |
| --- | --- |
| ACGTTCTG | -0.145 |
| ACATTGCA | 0.00575 |
| GACGTCCA | -0.117 |
| CCAGGACA | -0.134 |
| TATGTTGA | 0.0657 |
| ACGCAATA | 0.0123 |
| GATGGTCC | -0.0967 |
| GCTCGAAC | -5e-05 |
| ACACTTAC | -0.143 |
| AGTCAAGG | 0.0598 |
| GGCTCCAC | -0.266 |
| GCGAGGAA | -0.0961 |
| AACAGAGG | 0.011 |
| ACTCACAC | -0.0215 |
| GTCCAAAC | 0.0137 |
| GTACCATA | 0.288 |
| AGAGGTTG | 0.218 |
| AAATAGAC | -0.0181 |
| CGTACGTC | -0.34 |
| ATAAAGCG | 0.00524 |
| AGTTCGCG | 0.0423 |
| AAGCAACA | -0.0264 |
| CAGGGTGC | 0.0059 |
| GATGAGAA | 0.0673 |
| CCGTCCGC | -0.41 |

| Sequence | PBM E-score |
| --- | --- |
| CTTCTACA | -0.0296 |
| CGCCAACA | 0.0208 |
| CTTGTAAA | 0.199 |
| GCAGGGAA | -0.0199 |
| AAAACCGT | 0.173 |
| AGCTTCCT | -0.0905 |
| AATCGGAA | 0.0648 |
| GGGGAGGA | -0.263 |
| AGTAATGG | 0.0747 |
| ATGGTTGG | -0.0414 |
| AGGACCCG | 0.19 |
| ATTTCGTG | 0.0636 |
| GAACCTTA | 0.264 |
| CTAACAGC | -0.0498 |
| AACGCAGT | -0.0249 |
| ATAGCCGA | -0.0104 |
| TCGTCCCA | 0.0692 |
| ATTTGTAA | 0.15 |
| AATATATA | 0.0391 |
| CAGCCCTA | -0.00473 |
| GAGTATCC | -0.138 |
| ATGCTGTA | 0.049 |
| CATAGACC | -0.0638 |
| GGGTTCAC | -0.0414 |
| GGGATCTA | -0.0561 |

| Sequence | PBM E-score |
| --- | --- |
| ATGATCAG | 0.0568 |
| GAGTATCA | -0.154 |
| TCGCATCA | -0.0702 |
| CAGTAGTA | -0.138 |
| ATGTGAAA | 0.0158 |
| ACCACCAA | 0.134 |
| AAGTGCTC | -0.25 |
| CTCAGTGA | -0.201 |
| GCTGTAGA | -0.027 |
| ACAATTCT | 0.00604 |
| CGCGTTGA | -0.0346 |
| CCGAAGAC | 0.0271 |
| CTCTAGCC | -0.133 |
| ATCCAGGC | -0.22 |
| GGAAGCCC | -0.175 |
| CTCGCCGC | -0.101 |
| CGTAGAGA | -0.0844 |
| AACCCGAG | 0.236 |
| CGATATAC | -0.174 |
| GGTCCCTA | 0.0819 |
| ACCGGAGA | 0.165 |
| GCCCTCAA | -0.0338 |
| CTGTCGTA | -0.0959 |
| GTAATGAC | 0.128 |
| CTCTATTC | -0.0625 |

| Sequence | PBM E-score |
| --- | --- |
| GTTTTACA | -0.0421 |
| ATCCACGC | -0.182 |
| ACGTGCTA | -0.249 |
| CACTGCGA | 0.0909 |
| CTTCTCAA | 0.0469 |
| GCGTACCC | 0.106 |
| GTAAGAGA | -0.269 |
| AGGAGACA | -0.232 |
| CTGGGTTC | 0.0979 |
| ACCTTTAT | 0.352 |
| CAATTCGC | 0.138 |
| GCATCGGC | -0.215 |
| GGCGGAGA | -0.0875 |
| GTCTAAGA | 0.0701 |
| GTAGGTTA | 0.39 |
| AGATAGAG | -0.0876 |
| CAAGTTCC | -0.042 |
| GGCCCCGA | 0.0916 |
| GAACCAGA | -0.0227 |

From the supplement of paper PMC3334620
